# Results from publication PMC4081100.
# This is a selection; strong and weak results do not stand in their true shares. For some of these results: At the low end of the ranking, values are background and their order means little. The list shows a part of the results. For some of these results: Construct or isoform of the protein are uncertain.
# Tests used:
# Experiment in all cases: universal protein binding microarray (PBM)
# Details in all cases: transcription factors of Arabidopsis thaliana; high values mean tight binding; most listed sequences are background and not binding sites; double strand, one strand shown
# GST-ANAC092(1-176) = molecular target: T1, GST-ANAC092(1-176) (UniProt Q9FKA0)
# T1 sequence: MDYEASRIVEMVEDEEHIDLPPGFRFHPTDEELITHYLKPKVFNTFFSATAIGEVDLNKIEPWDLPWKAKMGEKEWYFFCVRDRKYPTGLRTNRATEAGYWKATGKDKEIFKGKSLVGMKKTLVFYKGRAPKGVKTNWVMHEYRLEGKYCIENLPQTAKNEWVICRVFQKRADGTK
# GST-NTL6(1-168) = GST-NTL6(1-168) (UniProt Q9SCK6)
# GST-ANAC019 NAC domain = molecular target: T2, GST-ANAC019 NAC domain (UniProt Q9C932)
# T2 sequence: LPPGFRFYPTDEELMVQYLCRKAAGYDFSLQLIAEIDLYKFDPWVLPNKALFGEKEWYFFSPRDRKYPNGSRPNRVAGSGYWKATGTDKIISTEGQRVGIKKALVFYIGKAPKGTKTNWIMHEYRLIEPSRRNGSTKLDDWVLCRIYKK
# GST-ANAC055(1-171) = molecular target: T3, GST-ANAC055(1-171) (UniProt Q9LDY8)
# T3 sequence: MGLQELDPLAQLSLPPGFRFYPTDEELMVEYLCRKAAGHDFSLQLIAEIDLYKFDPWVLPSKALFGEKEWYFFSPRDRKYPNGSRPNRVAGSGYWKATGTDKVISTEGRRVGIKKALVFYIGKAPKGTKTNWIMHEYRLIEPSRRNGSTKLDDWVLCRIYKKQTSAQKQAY
# GST-ATAF1 NAC domain = molecular target: T4, GST-ATAF1 NAC domain (UniProt Q39013)
# T4 sequence: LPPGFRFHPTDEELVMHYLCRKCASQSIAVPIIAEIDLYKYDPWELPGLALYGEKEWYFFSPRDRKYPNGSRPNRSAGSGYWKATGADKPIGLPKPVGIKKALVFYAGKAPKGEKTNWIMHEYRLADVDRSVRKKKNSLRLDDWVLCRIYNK
# [1] = molecular target: T5, GST-ANAC092(1-285) full length (UniProt Q9FKA0)
# T5 sequence: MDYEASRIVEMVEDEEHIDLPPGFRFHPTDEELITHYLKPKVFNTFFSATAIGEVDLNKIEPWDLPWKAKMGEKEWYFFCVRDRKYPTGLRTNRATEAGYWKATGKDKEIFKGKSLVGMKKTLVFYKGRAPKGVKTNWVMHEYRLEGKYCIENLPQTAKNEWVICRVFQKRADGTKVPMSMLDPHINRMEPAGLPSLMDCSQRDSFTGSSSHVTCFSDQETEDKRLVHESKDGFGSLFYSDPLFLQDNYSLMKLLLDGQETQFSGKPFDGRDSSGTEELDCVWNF
# GST-NAP(1-166) = molecular target: T6, GST-NAP(1-166) (UniProt O49255)
# T6 sequence: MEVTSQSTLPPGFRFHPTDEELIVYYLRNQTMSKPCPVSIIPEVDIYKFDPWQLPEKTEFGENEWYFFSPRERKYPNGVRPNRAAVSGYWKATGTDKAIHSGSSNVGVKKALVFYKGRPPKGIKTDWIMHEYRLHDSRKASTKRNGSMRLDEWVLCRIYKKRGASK
# GST-NST2(1-184) = molecular target: T7, GST-NST2(1-184) (UniProt Q9M274)
# T7 sequence: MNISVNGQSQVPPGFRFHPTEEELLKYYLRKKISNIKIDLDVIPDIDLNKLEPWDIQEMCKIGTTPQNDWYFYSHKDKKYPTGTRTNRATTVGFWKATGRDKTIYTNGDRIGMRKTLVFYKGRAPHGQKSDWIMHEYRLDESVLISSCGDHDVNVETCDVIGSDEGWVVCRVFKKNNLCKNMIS
# GST-NTL8 NAC domain = molecular target: T8, GST-NTL8 NAC domain (UniProt Q9XIN7)
# T8 sequence: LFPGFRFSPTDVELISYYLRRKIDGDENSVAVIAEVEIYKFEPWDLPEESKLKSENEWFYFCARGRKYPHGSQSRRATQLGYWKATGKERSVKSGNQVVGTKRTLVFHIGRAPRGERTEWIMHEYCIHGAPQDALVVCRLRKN
# GST-VND7 NAC domain = molecular target: T9, GST-VND7 NAC domain (UniProt Q9C8W9)
# T9 sequence: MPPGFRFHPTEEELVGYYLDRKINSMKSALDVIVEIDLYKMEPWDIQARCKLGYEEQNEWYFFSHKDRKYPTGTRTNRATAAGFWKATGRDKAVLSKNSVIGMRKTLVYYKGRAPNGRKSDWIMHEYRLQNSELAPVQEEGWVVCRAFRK
# [2] = molecular target: T10, GST-VOZ2 (Arabidopsis thaliana) (UniProt Q9SLB9)
# T10 sequence: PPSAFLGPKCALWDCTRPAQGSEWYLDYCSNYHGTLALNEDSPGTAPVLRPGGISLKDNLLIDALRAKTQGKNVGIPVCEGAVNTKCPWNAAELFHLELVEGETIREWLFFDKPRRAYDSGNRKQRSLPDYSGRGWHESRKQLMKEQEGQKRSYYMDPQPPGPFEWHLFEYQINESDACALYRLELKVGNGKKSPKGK
# GST-WRKY1(266-371) = GST-WRKY1(266-371) (UniProt Q9SI37)
# GST-VND3 NAC domain = molecular target: T11, GST-VND3 NAC domain (UniProt Q9FH59)
# T11 sequence: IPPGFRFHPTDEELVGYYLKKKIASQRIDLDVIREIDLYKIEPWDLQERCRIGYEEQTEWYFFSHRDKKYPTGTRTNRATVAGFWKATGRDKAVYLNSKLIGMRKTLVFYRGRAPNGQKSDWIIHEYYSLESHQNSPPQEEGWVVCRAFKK
sequence,measurement,setting,value
TCCGTCAA,binding signal,GST-ANAC092(1-176),-0.0261 E-score
same,binding signal,GST-NTL6(1-168),-0.0881 E-score
same,binding signal,GST-ANAC019 NAC domain,0.0961 E-score
same,binding signal,GST-ANAC055(1-171),-0.0622 E-score
same,binding signal,GST-ATAF1 NAC domain,0.00487 E-score
same,binding signal,[1],0.012 E-score
same,binding signal,GST-NAP(1-166),-0.071 E-score
same,binding signal,GST-NST2(1-184),-0.0902 E-score
same,binding signal,GST-NTL8 NAC domain,-0.00797 E-score
same,binding signal,GST-VND7 NAC domain,0.0414 E-score
same,binding signal,[2],-0.0509 E-score
same,binding signal,GST-WRKY1(266-371),0.412 E-score
AACGTAGA,binding signal,GST-NTL6(1-168),0.145 E-score
same,binding signal,[1],0.329 E-score
same,binding signal,GST-NTL8 NAC domain,0.0189 E-score
same,binding signal,GST-VND3 NAC domain,0.206 E-score
same,binding signal,[2],0.101 E-score
AGTCAAAA,binding signal,GST-NTL6(1-168),-0.079 E-score
same,binding signal,GST-ANAC019 NAC domain,0.0721 E-score
same,binding signal,GST-ANAC055(1-171),0.034 E-score
same,binding signal,GST-NAP(1-166),-0.0401 E-score
same,binding signal,GST-NST2(1-184),0.0468 E-score
same,binding signal,GST-NTL8 NAC domain,0.0351 E-score
same,binding signal,GST-VND3 NAC domain,0.104 E-score
same,binding signal,[2],0.0017 E-score
GAGGTAAC,binding signal,GST-ANAC092(1-176),0.191 E-score
same,binding signal,GST-NTL6(1-168),0.155 E-score
same,binding signal,GST-ANAC055(1-171),0.0267 E-score
same,binding signal,[1],0.2 E-score
same,binding signal,GST-NAP(1-166),0.00583 E-score
same,binding signal,GST-NTL8 NAC domain,0.437 E-score
same,binding signal,GST-VND7 NAC domain,0.0864 E-score
same,binding signal,[2],0.0115 E-score
same,binding signal,GST-WRKY1(266-371),-0.155 E-score
AGACGTAA,binding signal,GST-ANAC092(1-176),0.425 E-score
same,binding signal,GST-NTL6(1-168),0.0387 E-score
same,binding signal,GST-ANAC019 NAC domain,0.453 E-score
same,binding signal,GST-NAP(1-166),0.456 E-score
same,binding signal,GST-NTL8 NAC domain,0.139 E-score
same,binding signal,GST-VND7 NAC domain,0.42 E-score
same,binding signal,[2],-0.0184 E-score
same,binding signal,GST-WRKY1(266-371),-0.0315 E-score
CCGTCAAA,binding signal,GST-ANAC092(1-176),0.036 E-score
same,binding signal,GST-NTL6(1-168),-0.0814 E-score
same,binding signal,GST-ANAC055(1-171),-0.00988 E-score
same,binding signal,GST-ATAF1 NAC domain,-0.0255 E-score
same,binding signal,[1],-0.00183 E-score
same,binding signal,GST-NAP(1-166),0.0316 E-score
same,binding signal,GST-NST2(1-184),-0.00763 E-score
same,binding signal,GST-NTL8 NAC domain,0.0179 E-score
same,binding signal,GST-VND7 NAC domain,0.00619 E-score
same,binding signal,[2],0.15 E-score
same,binding signal,GST-WRKY1(266-371),0.409 E-score
ACGGCACT,binding signal,GST-ANAC092(1-176),0.331 E-score
same,binding signal,GST-NTL6(1-168),-0.0559 E-score
same,binding signal,GST-VND7 NAC domain,0.453 E-score
same,binding signal,[2],-0.0428 E-score
same,binding signal,GST-WRKY1(266-371),-0.0412 E-score
CACGCGAC,binding signal,GST-ANAC092(1-176),0.421 E-score
same,binding signal,GST-NTL6(1-168),-0.0963 E-score
same,binding signal,GST-ANAC019 NAC domain,-0.0248 E-score
same,binding signal,GST-ANAC055(1-171),0.0447 E-score
same,binding signal,GST-ATAF1 NAC domain,0.0222 E-score
same,binding signal,GST-NTL8 NAC domain,-0.0608 E-score
same,binding signal,GST-VND3 NAC domain,-0.00526 E-score
same,binding signal,[2],0.14 E-score
CAAAGTCA,binding signal,GST-ANAC092(1-176),0.0464 E-score
same,binding signal,GST-NTL6(1-168),-0.0321 E-score
same,binding signal,GST-ANAC019 NAC domain,-0.047 E-score
same,binding signal,GST-ATAF1 NAC domain,0.0379 E-score
same,binding signal,GST-NAP(1-166),0.0447 E-score
same,binding signal,GST-NST2(1-184),0.032 E-score
same,binding signal,GST-NTL8 NAC domain,-0.071 E-score
same,binding signal,GST-VND7 NAC domain,0.0536 E-score
same,binding signal,[2],-0.029 E-score
same,binding signal,GST-WRKY1(266-371),0.454 E-score
ACACTCCA,binding signal,GST-ANAC092(1-176),0.398 E-score
same,binding signal,GST-NTL6(1-168),0.00764 E-score
same,binding signal,GST-NAP(1-166),-0.0716 E-score
same,binding signal,GST-NST2(1-184),0.226 E-score
same,binding signal,GST-NTL8 NAC domain,-0.0543 E-score
same,binding signal,GST-VND7 NAC domain,-0.00441 E-score
same,binding signal,[2],0.0884 E-score
same,binding signal,GST-WRKY1(266-371),-0.135 E-score
AGCACGCA,binding signal,GST-ANAC092(1-176),0.435 E-score
same,binding signal,GST-NTL6(1-168),-0.1 E-score
same,binding signal,GST-ANAC019 NAC domain,0.333 E-score
same,binding signal,[1],0.453 E-score
same,binding signal,GST-NST2(1-184),0.222 E-score
same,binding signal,GST-NTL8 NAC domain,0.0609 E-score
same,binding signal,GST-VND7 NAC domain,0.216 E-score
same,binding signal,[2],0.0267 E-score
same,binding signal,GST-WRKY1(266-371),-0.0625 E-score
ATTTCTTA,binding signal,GST-ANAC092(1-176),0.0438 E-score
same,binding signal,GST-NTL6(1-168),0.409 E-score
same,binding signal,GST-ANAC019 NAC domain,0.00248 E-score
same,binding signal,GST-ATAF1 NAC domain,0.19 E-score
same,binding signal,GST-NAP(1-166),-0.0309 E-score
same,binding signal,GST-NST2(1-184),0.126 E-score
same,binding signal,GST-NTL8 NAC domain,-0.0301 E-score
same,binding signal,GST-VND7 NAC domain,0.148 E-score
same,binding signal,[2],0.121 E-score
same,binding signal,GST-WRKY1(266-371),0.00519 E-score
GACGTAAA,binding signal,GST-NTL6(1-168),0.0499 E-score
same,binding signal,[1],0.399 E-score
same,binding signal,GST-NAP(1-166),0.311 E-score
same,binding signal,GST-NTL8 NAC domain,-0.074 E-score
same,binding signal,GST-VND3 NAC domain,0.329 E-score
same,binding signal,[2],0.138 E-score
